In PubChem BioAssay AID686978 (National Center for Advancing Translational Sciences (NCATS), 2013):
Among all 420,000 compounds or so, about 64,000 (15%) were called active. Inconclusive means that the source gave no clear call. Such entries were picked first, then a sample of the others. The call rests on the fitted dose curve; in most records, active means well fitted inhibition curve with a large enough effect; inconclusive means small, poorly fitted or top-dose-only effect; inactive means flat fitted curve, though single readings scatter. No potency is given beside an inconclusive call; the fits are too rough.
On the % scale 0 is the no-effect control and ±100 the full control effect; potency means the concentration at half of the fitted maximal effect; tags describe the fitted curve by direction and shape.

Experiment: qHTS for Inhibitors of human tyrosyl-DNA phosphodiesterase 1 (TDP1): qHTS in cells in absence of CPT; further: nearly all actives have a fitted effect of over 55% in size
Conditions: DT40 Tdp1-/- hTDP1 cells, no CPT, ATP luminescence, 48 h; activity change, negative = growth inhibition: at 46.2 µM (top of the series) unless noted
Summary of the method: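 Seeded 400 DT40-hTDP1 cells/well (vehicle DMSO, no 20 nM CPT); pinned compounds; ≥48 hr at 37 °C; CellTiter-Glo luminescence as viability measure.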
In the case of `COc1cc(/C=C/C(=O)OCC(=O)N2CCc3ccccc32)cc(OC)c1OC`, the Potency is reported as inconclusive [inhibitor, single point]. With `COc1ccccc1NC(=O)CCN1CCN(c2ccc(Cl)cc2)CC1` the Potency was inconclusive [inhibitor, single point]. With `Cc1ccc(CNC(=O)c2sc3nc4n(c(=O)c3c2C)CCCCC4)cc1` the Potency was inconclusive [inhibitor, single point]. With `CSc1cccc(NC(=O)CSc2ccc(Cl)cc2)c1` the Potency was inconclusive [inhibitor, partial curve]. In the case of `O=C(Cn1c(NCCCO)nc2ccccc21)c1ccc(Cl)cc1Cl`, the Potency is reported as inconclusive [inhibitor, single point]. With `Brc1cc2c(cc1/C=N/Nc1nc(N3CCOCC3)nc(N3CCOCC3)n1)OCO2` the Potency was inconclusive [inhibitor, single point]. In the case of `Cc1onc(-c2ccccc2)c1C(=O)N1CCCSC1=Nc1ccccc1`, the Potency is reported as inconclusive [inhibitor, single point]. For `CN1CCN(c2nc(-c3ccncc3)nc3ccccc23)CC1`, the Potency was inconclusive [inhibitor, single point]. With `C/C(=N\OC(=O)c1ccc(F)cc1)c1sc(-c2ccc(Cl)cc2)nc1C` the Potency was “inactive”. In the case of `COC(=O)c1ccccc1NC(=O)C1CCCN(c2ncnc3onc(C)c23)C1` (centres undefined), the Potency is reported as inconclusive [inhibitor, partial curve]. For `CCCc1cc(=O)[nH]c2nnc(SCC(=O)Nc3cccc(NC(C)=O)c3)n12`, the Potency was inconclusive [inhibitor, partial curve, poor fit]. In the case of `CSC(=S)N/N=C/c1c[nH]c2ccccc12`, the Potency is reported as active: 0.92 µM. With `N#CC(=C(O)CN1CCN(c2ccccc2F)CC1)c1nc(-c2ccccc2)cs1` the Potency was inconclusive [inhibitor, partial curve]. For `CCCn1c(N)c(C(=O)CN(C)CC(=O)Nc2ccccc2C(F)(F)F)c(=O)[nH]c1=O`, the Potency was active: 20.6 µM. With `COc1ccc(C)cc1-n1nnnc1SCC(=O)Nc1cccnc1Cl` the Potency was active: 20.6 µM. With `CC(Oc1ccccc1)C(=O)N1CCN(S(=O)(=O)c2ccc(OC(F)(F)F)cc2)CC1` (centres undefined) the Potency was inconclusive [inhibitor, single point]. In the case of `COc1ccc(C(=O)N/N=C/c2ccc(N3CCOCC3)o2)cc1OC`, the Potency is reported as “inactive”. In the case of `CCOC(=O)CCCNC(=O)COC(=O)CCC(=O)c1ccc(F)cc1`, the Potency is reported as “inactive”. For `COc1cc(OC)c(N(C)S(=O)(=O)c2cccc(C(=O)Nc3nnc(C4CC4)s3)c2)cc1Cl`, the Potency was inconclusive [inhibitor, partial curve, poor fit]. For `COCCn1c(C)cc(C(=O)COC(=O)c2n[nH]c3ccccc23)c1C`, the Potency was active: 23.1 µM. In the case of `CN(Cc1ccccc1)S(=O)(=O)c1ccc(N2CCCC2=O)cc1`, the Potency is reported as inconclusive [inhibitor, single point]. With `COc1ccc(C)cc1NC(=O)C(OC(=O)c1ccc([N+](=O)[O-])o1)c1ccccc1` (centres undefined) the Potency was inconclusive [inhibitor, partial curve]. For `O=C(CNC(=O)c1ccc(Br)cc1)N/N=C/c1cccnc1`, the Potency was inconclusive [inhibitor, full curve, poor fit]. For `COc1ccc(C2=NN(C(=O)c3cccnc3)C(c3ccccc3)C2)cc1` (centres undefined), the Potency was inconclusive [inhibitor, single point]. In the case of `O=c1c2ccccc2n2c(-c3ccccc3F)nnc2n1CCc1ccccc1`, the Potency is reported as active: 18.4 µM. With `O=S(=O)(c1cccc(Cl)c1)N1CCN(c2nc(-c3ccccc3)nc3ccccc23)CC1` the Potency was inconclusive [inhibitor, single point]. In the case of `Cc1ccc(Cn2ncc3c(NN)ncnc32)cc1`, the Potency is reported as inconclusive [inhibitor, partial curve]. In the case of `CCc1ccc(N2CSC3=C(C#N)C(c4cccs4)CC(=O)N3C2)cc1` (centres undefined), the Potency is reported as active: 16.4 µM. With `CCOC(=O)C1=C(C)NC(C)=C(C(=O)OCC)C1C(=O)OCC(=O)NC(C)c1ccccc1` (centres undefined) the Potency was inconclusive [inhibitor, single point]. With `COc1ccc2c(c1)O[C@H](c1ccc3c(c1)OCO3)[C@@H](O)C2=O` the Potency was inconclusive [inhibitor, single point]. With `CO/N=C\CC(=O)Nc1ccc(Cl)c(Cl)c1` the Potency was inconclusive [inhibitor, single point]. With `Cc1cc(-c2nnnn2-c2cc(Cl)cc(Cl)c2)no1` the Potency was “inactive”. In the case of `CCN(CC)CCN(C(=O)c1ccc2c(c1)CCCC2)c1nc2ccc(OC)cc2s1`, the Potency is reported as inconclusive [inhibitor, single point]. With `COc1cc(C(=O)OCC(=O)c2cc(C)n(C)c2C)cc(NC(=O)c2ccco2)c1OC` the Potency was inconclusive [inhibitor, full curve, poor fit]. In the case of `CC(=O)c1ccc(CCCCc2ccc(C(C)=O)cc2)cc1`, the Potency is reported as inconclusive [inhibitor, single point]. For `CCN(CC)C(=O)CSCc1cnn(-c2ccccc2)c1-n1cccc1`, the Potency was active: 16.4 µM. With `Cc1ccc2c(c1)-c1nc3ccccc3cc1C2=NC1CCCCC1` the Potency was inconclusive [inhibitor, single point]. In the case of `Cc1ccc(S(=O)(=O)NC(=O)c2ccccc2)cc1C(C)C`, the Potency is reported as “inactive”. In the case of `Cc1ccc(NC(=O)C(Cc2ccccc2)N2Cc3ccccc3C2=O)cc1Cl` (centres undefined), the Potency is reported as inconclusive [inhibitor, single point]. With `COc1cc(NC(C)CCc2ccccc2)cc(OC)c1OC` (centres undefined) the Potency was active: 10.3 µM. In the case of `COCc1cc(=O)[nH]c2cc(NC(=O)C3CC3)c(C)cc12`, the Potency is reported as “inactive”. With `NNC(=O)Cn1nc2n(c1=O)-c1ccccc1SC2` the Potency was “inactive”. For `Cc1cc(=O)[nH]c(SCc2nnnn2-c2ccc(Cl)cc2)n1`, the Potency was inconclusive [inhibitor, single point]. With `CN(CC(=O)Nc1ccc(OC(F)(F)F)cc1)C1CCCCC1` the Potency was “inactive”. With `CCN(C(=O)c1c(C)oc2ncn(CC(C)C)c(=O)c12)c1cccc(Cl)c1` the Potency was inconclusive [inhibitor, single point]. In the case of `COc1ccc(-c2noc(C3CCCN(C(=O)c4ccccc4OC)C3)n2)cc1OC` (centres undefined), the Potency is reported as inconclusive [inhibitor, single point]. With `CC(C)Cc1c2c([nH]c(=S)c1C#N)CCCC2` the activity change, negative = growth inhibition was inconclusive: -36.6% [inhibitor]. For `CCCOc1ccc(-c2cnc(SCC(N)=O)nc2N)cc1`, the Potency was inconclusive [inhibitor, partial curve]. In the case of `COc1ccc(NC2CCCN(C(=O)c3c(C)noc3C)C2)cc1` (centres undefined), the Potency is reported as “inactive”. In the case of `CO[C@H]1[C@H](NC(=O)c2cccs2)c2ccccc2C12CCN(Cc1cccn1-c1ccccn1)CC2`, the Potency is reported as inconclusive [inhibitor, single point]. With `CCCOc1ccc(C(=O)NCc2ccco2)cc1` the Potency was inconclusive [inhibitor, single point]. With `CCCn1c(CCC(=O)Nc2ccc(C)c(Cl)c2)nc2cccnc21` the Potency was inconclusive [inhibitor, single point]. In the case of `Oc1ccc(Br)cc1-c1nc2cnccn2c1NC1CCCC1`, the Potency is reported as inconclusive [inhibitor, single point]. With `Cc1cc(-c2nnc3sc(-c4ccc(Cl)cc4Cl)nn23)n[nH]1` the Potency was inconclusive [inhibitor, partial curve]. With `N=c1sccn1CC(=O)Nc1ccc(Cl)cc1[N+](=O)[O-]` the Potency was inconclusive [inhibitor, single point]. In the case of `COc1cc2c(cc1NC(=O)Nc1cccc(C)c1)oc1ccccc12`, the Potency is reported as inconclusive [inhibitor, single point]. In the case of `COc1cccc(NC(=O)CC(c2ccc(OC(C)C)cc2)c2ccccc2OC)c1` (centres undefined), the Potency is reported as active: 11.6 µM. In the case of `COc1ccc(S(=O)(=O)N2CCCCCC2)cc1NC(C)C(=O)Nc1ccc(NC(C)=O)cc1` (centres undefined), the Potency is reported as inconclusive [inhibitor, single point]. In the case of `CC(=O)N1CCN(C(=O)C(Cc2ccccc2)NC(=O)c2ccccc2)CC1` (centres undefined), the Potency is reported as “inactive”. In the case of `CCOc1ccc(/C=N/NC(=S)NC2CC3CC2C2C=CCC32)cc1` (centres undefined), the Potency is reported as active: 16.4 µM. For `CCc1nc2ccc(C(=O)N(C)CC(=O)Nc3ccc(F)c(F)c3F)cc2nc1CC`, the Potency was inconclusive [inhibitor, single point]. With `COc1cc(CCC(=O)NCc2ccc3c(c2)OCO3)cc(OC)c1OC` the Potency was “inactive”. For `COc1ccccc1CC(=O)N1CCN(c2ccc(F)cc2)CC1`, the Potency was inconclusive [inhibitor, single point]. In the case of `Cc1ccc(C)c(OCCn2cc(/C=C(\C#N)C(=O)NCC3CCCO3)c3ccccc32)c1` (centres undefined), the Potency is reported as inconclusive [inhibitor, single point]. For `Cc1ccc(CCNC(=O)c2c[nH]c3ccc(S(=O)(=O)Nc4cccc(C(F)(F)F)c4)cc3c2=O)cc1`, the Potency was inconclusive [inhibitor, partial curve, poor fit]. In the case of `COc1ccc(CCNC(=O)C2CCN(S(=O)(=O)N3CC(C)CC(C)C3)CC2)cc1OC` (centres undefined), the Potency is reported as inconclusive [inhibitor, single point]. With `CCCS(=O)(=O)c1nnnn1-c1cccc(OC)c1` the Potency was active: 5.17 µM. With `Cc1ccc(Cl)c(OCC(=O)NN2CCN(C)CC2)c1` the Potency was inconclusive [inhibitor, single point]. For `Cn1cnnc1Sc1cc(N2CCN(S(=O)(=O)c3ccc(Cl)c(Cl)c3)CC2)ccc1[N+](=O)[O-]`, the Potency was active: 14.6 µM.
